Here are results for 78 compounds from ChEMBL document CHEMBL1201862, “PubChem BioAssay data set” (2004).

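Where inhibition never reached the appropriate level, the endpoint shown equals the highest concentration tested. Otherwise, values were interpolated linearly from a five-concentration, 48-hour dose response in 96-well plates. GI50 = concentration required for 50% inhibition of growth.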 Active and inactive are the calls of the source. Rule as the data show it: active = GI50 up to about 1.1 µM and inactive = higher.

The test system of the test is NCI-H322M. The test can be described thus: NCI anticancer screen, dose series, 48 h.
Turning to `C=C1c2nc3ccccc3n2C=C(c2ccc(C)cc2)N1c1ccccc1`, the GI50 was inactive: 6.44 µM.
Under `NC(CCc1ccccc1)(C(=O)O)c1ccccc1` (stereo not drawn) stands inactive: > 100 µM; under `CC(=O)OCC1OC(n2c(N)c(C#N)c(-c3ccccc3)c(C#N)c2=S)C(OC(C)=O)C(OC(C)=O)C1OC(C)=O` (stereo not drawn), inactive: > 100 µM; under `O=C(c1ccccc1)c1sc2c(=O)c(C(=O)c3ccccc3)c(C(=O)c3ccccc3)sc2c(=O)c1C(=O)c1ccccc1`, inactive: 79.6 µM.
As for `Cn1c(Nc2ccccc2)c(/C=N\c2ccccc2)c(=O)n(C)c1=O`, the figure is inactive: > 100 µM; as for `C/C(=N\NC(=S)N(C)C)c1ncc[nH]1`, inactive: 5.24 µM; as for `C/C(=C1/N=C(c2ccccc2)OC1=O)c1ccccc1`, inactive: 45.2 µM.
Under `Cc1ccc(S(=O)(=O)c2[nH]cc(/C(=C\C3CCCCC3)[N+](=O)[O-])c2C2CCCCC2)cc1` stands inactive: 1.56 µM; under `Cc1ccc([N+](=O)[O-])cc1S(=O)(=O)Nc1ccc(C2=NN(C(=O)c3ccccc3)C(c3ccccc3O)C2)cc1` (stereo not drawn), inactive: 28.8 µM.
Consider `S=C(N/N=C\c1ccccn1)N(Cc1ccccn1)Cc1ccccn1`, for which the GI50 is active: 0.962 µM.
As for `O=c1oc2ccc(Cl)cc2cc1-c1cn2ccsc2n1`, the figure is inactive: 54.8 µM; as for `CC(C)(C)CC(C)(C)N/C(N)=N/O`, inactive: > 100 µM.
Under `COc1cccc(C2SCc3nc4ccccc4n32)c1` (stereo not drawn) stands inactive: > 100 µM; under `CC(C)C(NC(=O)C(Cc1ccccc1)NC(=O)[C@H]1CCC[C@H]1NC(=O)C(Cc1ccc(OC(C)(C)C)cc1)NC(=O)OC(C)(C)C)C(N)=O` (stereo partly drawn), inactive: 38.2 µM; under `COC1(C)CP(=O)(OC(C)C)CC(C)=C1Cl` (stereo not drawn), inactive: 22.1 µM.
As for `COc1cc(/C=C/c2nc(NC(=S)Nc3ccccc3)nnc2C)cc(OC)c1OC`, the figure is inactive: 30.8 µM; as for `CNC1NC(=O)c2ccccc2N1Cc1ccc(F)cc1` (stereo not drawn), inactive: > 100 µM.
Turning to `Clc1ccc(OC2CCO2)cc1Cl` (stereo not drawn), the GI50 is inactive: > 100 µM.
As for `O=c1[nH]c(-c2ccc(-c3nc4cc([N+](=O)[O-])ccc4c(=O)[nH]3)cc2)nc2cc([N+](=O)[O-])ccc12`, the figure is inactive: > 100 µM; as for `O=P1(O)c2ccccc2CS(=O)(=O)Cc2ccccc21`, inactive: > 100 µM; as for `CC(=O)OCC1OC(N2C(C)=C(C(C)=O)C(c3ccco3)C(C#N)=C2S)C(OC(C)=O)C(OC(C)=O)C1OC(C)=O` (stereo not drawn), inactive: > 100 µM.
Under `N#CC(/C(CCC(=O)Nc1ccc(Cl)cc1)=N/NC(=O)c1cc2ccccc2cc1O)c1ccccc1` (stereo not drawn) stands inactive: 29.6 µM; under `Cc1cc(S(=O)(=O)O)c(NC(=O)C(=O)Cc2cc(=O)oc3cc(O)ccc23)cc1Cl`, inactive: > 100 µM.
Under `Oc1ccc2c(c1)-c1c(c3ccccc3n1CCN1CCOCC1)CC2` stands inactive: 19.4 µM; under `O=C1OC(O)C(Oc2c(Cl)cccc2Cl)=C1Cl` (stereo not drawn), inactive: 20.6 µM; under `CCOC(=O)C1=C(C)N(C2OC(COC(C)=O)C(OC(C)=O)C(OC(C)=O)C2OC(C)=O)C(=O)NC1c1ccccc1` (stereo not drawn), inactive: > 100 µM.
`Cc1ccc(NC(=O)CC/C(CC(=O)C(C)(C)C)=N/NC(=O)c2cc3ccccc3cc2O)cc1C`: the GI50 is inactive: 44.5 µM.
Under `O=[N+]([O-])c1cc(Br)cc2cc(Cl)cnc12` stands inactive: > 100 µM; under `COC(=O)C(COC(C)=O)NC(=O)/C=C/c1ccc(O)c(OC(C)=O)c1` (stereo not drawn), inactive: > 100 µM.
Turning to `COC(=O)C1C(OS(=O)(=O)O)CCC2CN3CCc4c([nH]c5ccccc45)C3CC21` (stereo not drawn), the GI50 is inactive: > 100 µM.
Under `CC(=O)OC1CCn2nnc(CO[Si](C)(C)C(C)(C)C)c21` (stereo not drawn) stands inactive: > 100 µM.
Take `CN1CCOC1(C)c1ccccc1` (stereo not drawn): the GI50 is inactive: > 100 µM.
As to `O=C(NC1CCCCC1)NC12CC3CC(CC(F)(C3)C1)C2`, the GI50 was inactive: > 100 µM.
Under `CC(C)(C)CC(C)(C)c1cc2c(O)c(c1)Cc1cc(C(C)(C)CC(C)(C)C)cc(c1O)Cc1cc(C(C)(C)CC(C)(C)C)cc(c1O)Cc1cc(C(C)(C)CC(C)(C)C)cc(c1O)Cc1cc(C(C)(C)CC(C)(C)C)cc(c1O)Cc1cc(C(C)(C)CC(C)(C)C)cc(c1O)Cc1cc(C(C)(C)CC(C)(C)C)cc(c1O)Cc1cc(C(C)(C)CC(C)(C)C)cc(c1O)C2` stands inactive: > 100 µM; under `O/N=C1/CCC/C1=C\c1ccccc1`, inactive: > 100 µM; under `CCCCCCCCCCOC1C(C(O)CNCCCN(C)C)OC2OC3(CCCCC3)OC21` (stereo not drawn), inactive: 5.15 µM.
As for `CCc1c(-c2ccccc2)[nH]c2ccccc2c1=O`, the figure is inactive: > 100 µM.
As for `CC(C)(C)c1ccc(C(O)c2ccc(C(C)(C)C)cc2)cc1`, the figure is inactive: 18.5 µM; as for `Cc1cc(C)nc(NS(=O)(=O)c2ccc(NC(=O)c3c4ccccc4nc4ccccc34)cc2)n1`, inactive: > 100 µM; as for `[Se]=P(c1ccccc1)(c1ccccc1)c1ccc(C(c2ccccc2)=P(c2ccccc2)(c2ccccc2)c2ccccc2)cc1`, inactive: 2.52 µM.
As for `CCCCCCCCCC[C@H](O)[C@H]1CC[C@@H]([C@@H](O)CC[C@H](O)[C@@H]2CCC(CCCCCCC[C@@H](O)CC3=C[C@H](C)OC3=O)O2)O1` (stereo partly drawn), the GI50 is inactive: 2.41 µM.
As for `CC1=C(C(=O)Nc2cc(F)c(F)cc2F)C(c2ccc(N(C)C)cc2)C(C(=O)Nc2cc(F)c(F)cc2F)=C(C)N1`, the figure is inactive: 28.8 µM; as for `CCOC(=O)CC1=N/C(=N/c2cc(Cl)ccc2Cl)SC1`, inactive: > 100 µM.
For the compound `COc1ccccc1N1CCN(CCCN2C(C(=O)c3ccccc3)=C(O)c3c(C)cc(C)nc3S2(=O)=O)CC1`, the GI50 was inactive: > 100 µM.
With `CCOC(=O)c1ccc(Nc2nc3ccccc3nc2-c2cccs2)cc1`, the GI50 was inactive: > 100 µM.
As for `C#CCN(Cc1ccc2nc(OC)c(OC)nc2c1)c1cc(OC)c(OC)c(OC)c1`, the figure is inactive: 34.1 µM.
As for `CN1CCCC2[C@@H]3CCC4c5nonc5CC[C@]4(C)C3CC[C@@]21C` (stereo partly drawn), the figure is inactive: > 100 µM; as for `CCCc1cc(O)c2c(C)c3[nH]c4ccc(Cl)cc4c3c(C)c2n1`, inactive: 16.8 µM; as for `CN1CCN(c2ccc3nc(C4=C(O)C(=O)c5c(nc(CCl)n5C)C4=O)[nH]c3n2)CC1`, inactive: 18.6 µM.
As for `C=C1CCC2C(C)(CO)C(O)CCC2(C)C1CC(O)/C(=C/CO)C(=O)O` (stereo not drawn), the figure is inactive: > 100 µM; as for `Cc1csc2nc(-c3ccc([N+](=O)[O-])cc3)c(/C=N/N=C(N)N)n12`, inactive: 1.86 µM; as for `CCN(CC)CCNc1ccc2nnn3c4ccc(OCCN(CC)CC)cc4c(=O)c1c23`, inactive: 24.3 µM.
As for `CN(C)/C=C/c1nnnn1-c1ccc(I)cc1`, the GI50 is inactive: 22.3 µM.
Under `COC(=O)C[C@H](COCc1ccccc1)NC(=O)C[C@H](COCc1ccccc1)NC(=O)C[C@H](COCc1ccccc1)NC(=O)OC(C)(C)C` stands inactive: 21.9 µM; under `COc1cc(C2SCC(=O)N2c2cccc(Cl)c2)cc(OC)c1OC` (stereo not drawn), inactive: 75.5 µM.
As for `COc1ccc(C(=O)CCN(C)C)c2ccccc12`, the figure is inactive: > 74 µM; as for `CCOC(=O)Cc1nc2sc(S(N)(=O)=O)nn2c1Br`, inactive: 34 µM.
Under `O=C(NNC(=O)c1c(Cl)c(Cl)c(Cl)c(Cl)c1-c1nc2ccccc2[nH]1)c1ccc(Cl)cc1` stands inactive: 52.2 µM.
For the compound `COC(O)C12OC3CO[Si](C(C)C)(C(C)C)O[Si](C(C)C)(C(C)C)OC3C1Oc1nc(=O)ccn12` (stereo not drawn), the GI50 was inactive: 16.4 µM.
Under `COc1ccc(C(=O)C(C(=O)C(=O)NCCCNC(=O)C(=O)C(C(=O)c2ccc(OC)cc2)c2ccc(OC)cc2)c2ccc(OC)cc2)cc1` (stereo not drawn) stands inactive: > 100 µM.
Under `CCOC(=O)c1c(N/C(S)=N/c2ccccc2)sc2c1CCOC2` stands inactive: 73.6 µM; under `Cc1cc(NS(=O)(=O)c2ccc(NC(=O)c3cccc4c(Nc5ccc(S(=O)(=O)Nc6cc(C)on6)cc5)c5ccccc5nc34)cc2)no1`, inactive: 43.8 µM; under `O=C(N/N=C(COc1ccccc1Cl)\N=C\c1cccnc1)c1ccncc1`, inactive: > 100 µM.
As for `COc1ccc(CNc2nc(NCc3ccc(OC)cc3)nc(NC3CCCC3)n2)cc1`, the figure is inactive: 2.42 µM; as for `N#Cc1ccc(NC(=O)C(CC(=O)OCc2ccccc2)NC(=O)OCc2ccccc2)cc1` (stereo not drawn), inactive: > 10 µM; as for `COC1(OC)CCC2(C)OC(c3ccccc3)C1O2` (stereo not drawn), inactive: > 100 µM.
As for `O=S(=O)(O)c1ccc2c(/N=N\c3cccc4ccccc34)c(O)c(S(=O)(=O)O)cc2c1`, the GI50 is inactive: > 100 µM.
Under `CN(C)[C@@H]1C(O)=C(C(=O)NCNCCCC(=O)O)C(=O)[C@@]2(O)C(O)=C3C(=O)c4c(O)cccc4[C@@](C)(O)[C@H]3C[C@@H]12` stands inactive: > 100 µM; under `COc1cc(C2c3[nH]c4ccccc4c3C[C@H]3COC(=O)N23)cc(OC)c1OC` (stereo partly drawn), active: 0.0743 µM; under `CC(=O)N[C@@H]1C(O)CN2C(=O)C(=O)O[C@H](C(O)CO)[C@@H]12` (stereo partly drawn), inactive: > 100 µM.
As for `COc1cc2c(/C=C3/C(=O)Nc4ccccc43)c(Cl)[nH]c2cc1C`, the figure is active: 0.0857 µM; as for `CCCCCCCCCCCCCCCC(=O)N[C@H]1CCc2cc(OC)c(OC)c(OC)c2-c2ccc(SC)c(=O)cc21`, active: 0.48 µM; as for `OCC1OC(n2cnc3c2NC=NC[C@H]3O)CC1O` (stereo partly drawn), inactive: > 500 µM.
As for `CN(C)CCSc1cc(-c2ccccc2)c2ccccc2n1`, the figure is inactive: 18.4 µM; as for `N#C/C(=C\c1ccc2[nH]ccc2c1)C(=O)c1ccc(O)c(O)c1`, inactive: 88.1 µM; as for `O=c1c2ccccc2sc2ccccc12`, inactive: > 100 µM.
Take `Nc1ccc(-c2nc3ccccc3s2)cc1`: the GI50 was inactive: 35.3 µM.
Under `CCCc1ccc(NCc2cc(OC)c(OC)c(OC)c2)cc1` stands inactive: 57.7 µM.
